{"source": "the supplement of paper PMC8728848", "binders": {"B1": {"name": "Dectin-1 (Mus musculus), Q6QLQ4 (protein)", "chain": "EYGHNSGRNPEEKDNFLSRNKENHKPTESSLDEKVAPSKASQTTGGFSQPCLPNWIMHGKSCYLFSFSGNSWYGSKRHCSQLGAHLLKIDNSKEFEFIESQTSSHRINAFWIGLSRNQSEGPWFWEDGSAFFPNSFQVRNTAPQESLLHNCVWIHGSEVYNQICNTSSYSICEKEL"}}, "experiment_in_all_cases": "glycan array binding signal (z-score within array); higher = stronger binding", "details_in_all_cases": "glycan notation: IUPAC condensed, linker removed", "key": {"[1]": {"target": "Glc(a1-4)Glc(a1-4)Glc(a1-4)Glc(a1-4)Glc(a1-4)Glc(a1-4)Glc(a1-4)Glc(a1-4)Glc(a1-4)Glc(a1-4)Glc(a1-4)Glc", "outline": "(§1)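 The Consortium for Functional Glycomics database supplied 3228 glycan arrays, of which those lacking an available protein sequence were dropped. The binding signal, a within-array Z-score, was averaged across arrays of the same protein sequence and across linkers. Negative scores can be read as non-binding.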"}, "[2]": {"target": "Glc(a1-4)Glc(a1-4)Glc(a1-4)Glc(a1-4)Glc(a1-4)Glc(a1-4)Glc(a1-4)Glc(a1-4)Glc(a1-4)Glc(a1-4)Glc(a1-4)Glc(a1-4)Glc", "outline": "as §1"}, "Glc(a1-4)Glc(a1-6)Glc": {"target": "Glc(a1-4)Glc(a1-6)Glc", "outline": "as §1"}, "Glc(a1-6)Glc": {"target": "Glc(a1-6)Glc", "outline": "as §1"}, "Glc(a1-6)Glc(a1-4)Glc": {"target": "Glc(a1-6)Glc(a1-4)Glc", "outline": "as §1"}, "[3]": {"target": "Glc(a1-6)Glc(a1-4)Glc(a1-4)Glc", "outline": "as §1"}, "[4]": {"target": "Glc(a1-6)Glc(a1-4)Glc(a1-4)Glc(a1-6)Glc(a1-4)Glc(a1-4)Glc", "outline": "as §1"}, "Glc(a1-6)Glc(a1-6)Glc": {"target": "Glc(a1-6)Glc(a1-6)Glc", "outline": "as §1"}, "[5]": {"target": "Glc(a1-6)Glc(a1-6)Glc(a1-6)Glc", "outline": "as §1"}, "[6]": {"target": "Glc(a1-6)Glc(a1-6)Glc(a1-6)Glc(a1-6)Glc", "outline": "as §1"}, "[7]": {"target": "Glc(a1-6)Glc(a1-6)Glc(a1-6)Glc(a1-6)Glc(a1-6)Glc", "outline": "as §1"}, "[8]": {"target": "Glc(a1-6)Glc(a1-6)Glc(a1-6)Glc(a1-6)Glc(a1-6)Glc(a1-6)Glc", "outline": "as §1"}, "[9]": {"target": "Glc(a1-6)Glc(a1-6)Glc(a1-6)Glc(a1-6)Glc(a1-6)Glc(a1-6)Glc(a1-6)Glc", "outline": "as §1"}, "[10]": {"target": "Glc(a1-6)Glc(a1-6)Glc(a1-6)Glc(a1-6)Glc(a1-6)Glc(a1-6)Glc(a1-6)Glc(a1-6)Glc", "outline": "as §1"}, "[11]": {"target": "Glc(a1-6)Glc(a1-6)Glc(a1-6)Glc(a1-6)Glc(a1-6)Glc(a1-6)Glc(a1-6)Glc(a1-6)Glc(a1-6)Glc", "outline": "as §1"}, "[12]": {"target": "Glc(a1-6)Glc(a1-6)Glc(a1-6)Glc(a1-6)Glc(a1-6)Glc(a1-6)Glc(a1-6)Glc(a1-6)Glc(a1-6)Glc(a1-6)Glc", "outline": "as §1"}, "[13]": {"target": "Glc(a1-6)Glc(a1-6)Glc(a1-6)Glc(a1-6)Glc(a1-6)Glc(a1-6)Glc(a1-6)Glc(a1-6)Glc(a1-6)Glc(a1-6)Glc(a1-6)Glc", "outline": "as §1"}, "[14]": {"target": "Glc(a1-6)Glc(a1-6)Glc(a1-6)Glc(a1-6)Glc(a1-6)Glc(a1-6)Glc(a1-6)Glc(a1-6)Glc(a1-6)Glc(a1-6)Glc(a1-6)Glc(a1-6)Glc", "outline": "as §1"}, "Glc(b1-2)Glc": {"target": "Glc(b1-2)Glc", "outline": "as §1"}, "Glc(b1-2)Glc(b1-2)Glc": {"target": "Glc(b1-2)Glc(b1-2)Glc", "outline": "as §1"}, "[15]": {"target": "Glc(b1-2)Glc(b1-2)Glc(b1-2)Glc", "outline": "as §1"}, "[16]": {"target": "Glc(b1-2)Glc(b1-2)Glc(b1-2)Glc(b1-2)Glc", "outline": "as §1"}, "[17]": {"target": "Glc(b1-2)Glc(b1-2)Glc(b1-2)Glc(b1-2)Glc(b1-2)Glc", "outline": "as §1"}, "[18]": {"target": "Glc(b1-2)Glc(b1-2)Glc(b1-2)Glc(b1-2)Glc(b1-2)Glc(b1-2)Glc", "outline": "as §1"}, "[19]": {"target": "Glc(b1-2)Glc(b1-2)Glc(b1-2)Glc(b1-2)Glc(b1-2)Glc(b1-2)Glc(b1-2)Glc", "outline": "as §1"}, "[20]": {"target": "Glc(b1-2)Glc(b1-2)Glc(b1-2)Glc(b1-2)Glc(b1-2)Glc(b1-2)Glc(b1-2)Glc(b1-2)Glc", "outline": "as §1"}, "[21]": {"target": "Glc(b1-2)Glc(b1-2)Glc(b1-2)Glc(b1-2)Glc(b1-2)Glc(b1-2)Glc(b1-2)Glc(b1-2)Glc(b1-2)Glc", "outline": "as §1"}, "[22]": {"target": "Glc(b1-2)Glc(b1-2)Glc(b1-2)Glc(b1-2)Glc(b1-2)Glc(b1-2)Glc(b1-2)Glc(b1-2)Glc(b1-2)Glc(b1-2)Glc", "outline": "as §1"}, "[23]": {"target": "Glc(b1-2)Glc(b1-2)Glc(b1-2)Glc(b1-2)Glc(b1-2)Glc(b1-2)Glc(b1-2)Glc(b1-2)Glc(b1-2)Glc(b1-2)Glc(b1-2)Glc", "outline": "as §1"}, "[24]": {"target": "Glc(b1-2)Glc(b1-2)Glc(b1-2)Glc(b1-2)Glc(b1-2)Glc(b1-2)Glc(b1-2)Glc(b1-2)Glc(b1-2)Glc(b1-2)Glc(b1-2)Glc(b1-2)Glc", "outline": "as §1"}, "Glc(b1-3)Glc": {"target": "Glc(b1-3)Glc", "outline": "as §1"}, "Glc(b1-3)Glc(b1-3)Glc": {"target": "Glc(b1-3)Glc(b1-3)Glc", "outline": "as §1"}, "[25]": {"target": "Glc(b1-3)Glc(b1-3)Glc(b1-3)Glc", "outline": "as §1"}, "[26]": {"target": "Glc(b1-3)Glc(b1-3)Glc(b1-3)Glc(b1-3)Glc", "outline": "as §1"}, "[27]": {"target": "Glc(b1-3)Glc(b1-3)Glc(b1-3)Glc(b1-3)Glc(b1-3)Glc", "outline": "as §1"}, "[28]": {"target": "Glc(b1-3)Glc(b1-3)Glc(b1-3)Glc(b1-3)Glc(b1-3)Glc(b1-3)Glc", "outline": "as §1"}, "[29]": {"target": "Glc(b1-3)Glc(b1-3)Glc(b1-3)Glc(b1-3)Glc(b1-3)Glc(b1-3)Glc(b1-3)Glc", "outline": "as §1"}, "[30]": {"target": "Glc(b1-3)Glc(b1-3)Glc(b1-3)Glc(b1-3)Glc(b1-3)Glc(b1-3)Glc(b1-3)Glc(b1-3)Glc", "outline": "as §1"}, "[31]": {"target": "Glc(b1-3)Glc(b1-3)Glc(b1-3)Glc(b1-3)Glc(b1-3)Glc(b1-3)Glc(b1-3)Glc(b1-3)Glc(b1-3)Glc", "outline": "as §1"}, "[32]": {"target": "Glc(b1-3)Glc(b1-3)Glc(b1-3)Glc(b1-3)Glc(b1-3)Glc(b1-3)Glc(b1-3)Glc(b1-3)Glc(b1-3)Glc(b1-3)Glc", "outline": "as §1"}, "[33]": {"target": "Glc(b1-3)Glc(b1-3)Glc(b1-3)Glc(b1-3)Glc(b1-3)Glc(b1-3)Glc(b1-3)Glc(b1-3)Glc(b1-3)Glc(b1-3)Glc(b1-3)Glc", "outline": "as §1"}, "[34]": {"target": "Glc(b1-3)Glc(b1-3)Glc(b1-3)Glc(b1-3)Glc(b1-3)Glc(b1-3)Glc(b1-3)Glc(b1-3)Glc(b1-3)Glc(b1-3)Glc(b1-3)Glc(b1-3)Glc", "outline": "as §1"}, "[35]": {"target": "Glc(b1-3)Glc(b1-3)Glc(b1-3)Glc(b1-3)Glc(b1-3)Glc(b1-3)Glc(b1-3)[Glc(b1-6)]Glc(b1-3)Glc", "outline": "as §1"}}, "note": "The other results are listed elsewhere or left out."}
{"binder": "B1", "values": [{"measurement": "glycan array binding signal (z-score)", "setting": "[1]", "value": -0.056}, {"measurement": "glycan array binding signal (z-score)", "setting": "[2]", "value": -0.07}, {"measurement": "glycan array binding signal (z-score)", "setting": "Glc(a1-4)Glc(a1-6)Glc", "value": 0.079}, {"measurement": "glycan array binding signal (z-score)", "setting": "Glc(a1-6)Glc", "value": -0.182}, {"measurement": "glycan array binding signal (z-score)", "setting": "Glc(a1-6)Glc(a1-4)Glc", "value": 0.294}, {"measurement": "glycan array binding signal (z-score)", "setting": "[3]", "value": 0.353}, {"measurement": "glycan array binding signal (z-score)", "setting": "[4]", "value": -0.008}, {"measurement": "glycan array binding signal (z-score)", "setting": "Glc(a1-6)Glc(a1-6)Glc", "value": -0.174}, {"measurement": "glycan array binding signal (z-score)", "setting": "[5]", "value": -0.182}, {"measurement": "glycan array binding signal (z-score)", "setting": "[6]", "value": -0.091}, {"measurement": "glycan array binding signal (z-score)", "setting": "[7]", "value": -0.182}, {"measurement": "glycan array binding signal (z-score)", "setting": "[8]", "value": -0.165}, {"measurement": "glycan array binding signal (z-score)", "setting": "[9]", "value": -0.161}, {"measurement": "glycan array binding signal (z-score)", "setting": "[10]", "value": -0.167}, {"measurement": "glycan array binding signal (z-score)", "setting": "[11]", "value": -0.177}, {"measurement": "glycan array binding signal (z-score)", "setting": "[12]", "value": -0.153}, {"measurement": "glycan array binding signal (z-score)", "setting": "[13]", "value": -0.164}, {"measurement": "glycan array binding signal (z-score)", "setting": "[14]", "value": -0.174}, {"measurement": "glycan array binding signal (z-score)", "setting": "Glc(b1-2)Glc", "value": -0.206}, {"measurement": "glycan array binding signal (z-score)", "setting": "Glc(b1-2)Glc(b1-2)Glc", "value": -0.206}, {"measurement": "glycan array binding signal (z-score)", "setting": "[15]", "value": -0.206}, {"measurement": "glycan array binding signal (z-score)", "setting": "[16]", "value": -0.206}, {"measurement": "glycan array binding signal (z-score)", "setting": "[17]", "value": -0.206}, {"measurement": "glycan array binding signal (z-score)", "setting": "[18]", "value": -0.206}, {"measurement": "glycan array binding signal (z-score)", "setting": "[19]", "value": -0.206}, {"measurement": "glycan array binding signal (z-score)", "setting": "[20]", "value": -0.206}, {"measurement": "glycan array binding signal (z-score)", "setting": "[21]", "value": -0.206}, {"measurement": "glycan array binding signal (z-score)", "setting": "[22]", "value": -0.206}, {"measurement": "glycan array binding signal (z-score)", "setting": "[23]", "value": -0.166}, {"measurement": "glycan array binding signal (z-score)", "setting": "[24]", "value": -0.182}, {"measurement": "glycan array binding signal (z-score)", "setting": "Glc(b1-3)Glc", "value": -0.156}, {"measurement": "glycan array binding signal (z-score)", "setting": "Glc(b1-3)Glc(b1-3)Glc", "value": -0.162}, {"measurement": "glycan array binding signal (z-score)", "setting": "[25]", "value": -0.133}, {"measurement": "glycan array binding signal (z-score)", "setting": "[26]", "value": -0.164}, {"measurement": "glycan array binding signal (z-score)", "setting": "[27]", "value": -0.18}, {"measurement": "glycan array binding signal (z-score)", "setting": "[28]", "value": -0.174}, {"measurement": "glycan array binding signal (z-score)", "setting": "[29]", "value": -0.168}, {"measurement": "glycan array binding signal (z-score)", "setting": "[30]", "value": -0.178}, {"measurement": "glycan array binding signal (z-score)", "setting": "[31]", "value": -0.177}, {"measurement": "glycan array binding signal (z-score)", "setting": "[32]", "value": 0.83}, {"measurement": "glycan array binding signal (z-score)", "setting": "[33]", "value": 5.77}, {"measurement": "glycan array binding signal (z-score)", "setting": "[34]", "value": 6.71}, {"measurement": "glycan array binding signal (z-score)", "setting": "[35]", "value": -0.182}]}
